In paper PMC6919601, “Identification of Plasmodium dipeptidyl aminopeptidase allosteric inhibitors by high throughput screening” (PLoS ONE, 2019):
In all, about 110,000 compounds went through this assay and about 230 (0.21%) showed an effect of 50% or more. This is one part of the list.

Target: DPAP1 (Plasmodium falciparum, UniProt Q8IIJ9)
Test: primary screen, percent inhibition; read by cleavage of a fluorogenic dipeptide substrate; higher = more effect of the substance
Design: species or system P. falciparum D10 trophozoite lysates; single well
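Note: 30 min substrate incubation versus DMSO and 10 µM JCP410 controls.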

Sequence of DPAP1 (Q8IIJ9 whole entry, looked up): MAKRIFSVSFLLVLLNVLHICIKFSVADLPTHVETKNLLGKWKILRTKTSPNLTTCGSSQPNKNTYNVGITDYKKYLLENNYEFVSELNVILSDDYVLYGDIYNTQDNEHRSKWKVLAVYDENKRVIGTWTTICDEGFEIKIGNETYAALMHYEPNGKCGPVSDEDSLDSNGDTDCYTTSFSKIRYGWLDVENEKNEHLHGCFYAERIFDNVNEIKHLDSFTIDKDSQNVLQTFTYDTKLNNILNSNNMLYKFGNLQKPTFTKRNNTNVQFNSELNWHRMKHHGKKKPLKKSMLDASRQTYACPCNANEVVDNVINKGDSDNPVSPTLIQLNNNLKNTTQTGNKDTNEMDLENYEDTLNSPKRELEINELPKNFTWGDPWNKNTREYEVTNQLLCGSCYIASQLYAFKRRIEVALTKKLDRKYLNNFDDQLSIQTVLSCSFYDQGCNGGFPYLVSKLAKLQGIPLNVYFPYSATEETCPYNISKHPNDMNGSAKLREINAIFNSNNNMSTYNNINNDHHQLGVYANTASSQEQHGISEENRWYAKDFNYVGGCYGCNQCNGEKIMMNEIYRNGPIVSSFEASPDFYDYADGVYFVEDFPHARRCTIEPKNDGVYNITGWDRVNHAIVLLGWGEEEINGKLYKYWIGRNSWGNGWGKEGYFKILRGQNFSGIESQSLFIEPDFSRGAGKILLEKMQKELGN

Structure (SMILES)	% Inhibition @ 10 uM [%]
Cc1ccccc1-c1nc(NC(=O)CSc2ncnc3sc(C)c(C)c23)ns1	-1.33
CCCCCc1ccc(-c2ccc(-c3noc(CC)n3)cc2)cc1	2.54
COc1cc2c(cc1OC)CN(S(=O)(=O)c1ccc(-n3cnnn3)cc1)CC2	-1.07
CC1=CC2=NC(=O)/C(=C\c3ccc(OCc4ccccc4Cl)cc3)C(=N)N2O1	0.317
O=C(NC(NC(=O)c1ccccc1)c1ccc([N+](=O)[O-])cc1)c1ccccc1	-3.92
CCCCNC(=O)Cn1ccc2cc(S(=O)(=O)N3CCC(C)CC3)ccc21	-6.22
Oc1oc(-c2ccc(Cl)cc2)nc1/C=N/c1ccc(Cl)cn1	1.25
COc1ccc(-n2c(C)c(C(C)=O)c3cc(OC)ccc32)cc1	-0.0938
COc1ccccc1-c1c(C)nn2c(SCC(=O)N3CCCC3)cc(C)nc12	-1.7
COc1cccc(OCC(O)CN2CCC(C)CC2)c1 (centres unmarked)	-3.34
COCCCNC(=O)c1cc2c(C)nn(-c3ccccc3)c2s1	-1.33
COc1ccccc1/C=C/C=c1\sc2nc(-c3ccc(OC)c(OC)c3)nn2c1=O	2.04
CC1(C)CC(NC(=O)COc2ccc(Cl)cc2Br)CC(C)(C)N1	-3.06
CCC1CCC(c2ccc(C(=O)CCN(C)C)cc2)CC1 (centres unmarked)	4.52
CC1(C)CC(CCOC(=O)c2cccnc2)CC(C)(C)N1	-0.403
COc1cccc2cc(NC(=O)c3ccc(C)c(C)c3)c(=O)oc12	2.7
Cn1cc(C2N3CC4(C)CN2CC(C)(C3)C4=O)c2ccccc21 (centres unmarked)	1.26
CC1=CC=CN2C(=O)NC(C(F)(F)F)(C(F)(F)F)N=C12	3.36
O=C(O)/C=C/C(=O)Nc1cccc(NC(=O)/C=C/C(=O)O)c1	0.505
CCN(CC)C(=O)Cn1c(=O)n(CCC(=O)NCc2ccc(OC)cc2)c(=O)c2sccc21	-1.21
COc1cc2c(cc1OC)CN(CC1=CC[C@H]3C[C@@H]1C3(C)C)CC2	-0.603
COc1cccc(C2NC(=O)c3sc(=S)n(-c4ccccc4)c3N2)c1 (centres unmarked)	-2.2
CCSc1ncc(Cl)c(C(=O)Nc2nnc(SCc3ccc(F)cc3)s2)n1	-2.85
CC1=C(C(=O)Nc2ccccn2)C(c2cccc(Oc3ccccc3)c2)C2=C(O)CC(C)(C)CC2=N1 (centres unmarked)	-3.9
Cc1cc(C)n(CNc2nonc2C(=N)NOCc2c(F)cccc2Cl)n1	-3.04

Structure (SMILES)	% Inhibition @ 10 uM [%]
O=C1CCCc2occ(-c3cccc([N+](=O)[O-])c3)c21	-4.21
Cc1ccc(C23CC4CC(CC(C(=O)CN5C(=O)c6ccccc6C5=O)(C4)C2)C3)cc1	-0.615
Cc1cc(C(=O)C2=C(O)C(=O)N(Cc3cccnc3)C2c2ccccc2)ccc1OCC(C)C (centres unmarked)	1.93
COc1cc(-c2cc(NC(=O)c3cc4ccc5cccnc5c4[nH]3)on2)cc(OC)c1OC	2.09
CC1=C(C(=O)Nc2ccc(Cl)cc2)C(c2cccc(F)c2)n2ncnc2N1 (centres unmarked)	-1.22
O=C(O/N=C1/CCSc2ccccc21)c1ccc(Cl)c(Cl)c1	-1.93
CCCC(=O)Nc1ccc(S(=O)(=O)NC(C)(C)C)cc1	-2.28
COc1ccc(/C=C2\CCC(C3CCCC3)C2=O)c(OC)c1 (centres unmarked)	8.9
COC(=O)c1cc(-c2ccc(N)cc2)nc2ccccc12	-0.833
CC(C)(C)c1nnc(NCc2ccccc2)nc1O	-4.67
COc1ccc(C)cc1N(CC(=O)NC1CCCC1)S(=O)(=O)c1ccccc1	-0.46
C=C(C)Cn1c(CCCNC(=O)Cc2ccccc2)nc2ccccc21	2.17
Cc1oc(-c2ccccc2F)nc1CS(=O)(=O)CC(=O)N1CCC(Cc2ccccc2)CC1	1.55
Cc1ccc(N2C(=O)CC(NCCc3ccc(Cl)cc3)C2=O)cc1 (centres unmarked)	1.95
O=c1onc(-c2cccs2)n1Cc1cccc(F)c1	5.88
CC1CCN(S(=O)(=O)c2ccc(NC(=O)c3ccc(-c4ccccc4)cc3)cc2)CC1	2.13
CCOc1ccc(C(=O)Nc2c3c(nn2-c2ccc(C)cc2C)CS(=O)(=O)C3)cc1OCC	5.35
CCOc1cc(C2c3sc(O)nc3SC3C4CCC(C4)C23)ccc1O (centres unmarked)	16.8
Cc1ccc(N2C(=O)C(Cl)=C(N3CCOCC3)C2=O)cc1Cl	-1.64
CCCCC(CC)C(C#N)NC(=O)[C@H](CC(C)C)NC(=O)OCc1ccccc1 (some centres unmarked)	-3.04
CN1CCN(C(=O)c2cc3nc(-c4ccc(Br)cc4)cc(C(F)(F)F)n3n2)CC1	-4.82
CCOC(=O)C1=C(C)NC(=O)NC1c1cccc(OC)c1O (centres unmarked)	4.52
COc1cccc(C2=CC(c3ccc(F)c(Br)c3)n3ncnc3N2)c1 (centres unmarked)	0.0842
CC1CN(Cc2ccc(OC(F)(F)F)cc2)CC(C)O1 (centres unmarked)	-1.63
CC(=O)C1=C(C)NC(=O)NC1c1cccc(O)c1 (centres unmarked)	-5.38

Structure (SMILES)	% Inhibition @ 10 uM [%]
O=C(c1ccc(F)cc1)N1CCN(Cc2ccc3ccccc3c2)CC1	-7.09
Cc1ccnc(NC(=O)C2CCC(CNc3c(N4CCC(C)CC4)c(=O)c3=O)CC2)c1 (centres unmarked)	-5.81
COc1ccc(OC)c(C2CCN(S(=O)(=O)c3c[nH]cn3)C2)c1 (centres unmarked)	-1.59
O=C(N/C(=C\c1ccc(Cl)cc1)C(=O)N1CCCCC1)c1ccccc1	8.6
O=C(O)/C=C/c1ccc(N2Cc3ccccc3C2)cc1	1.84
COc1cc(O)ccc1C1CC(=O)Nc2c1c(C)nn2-c1nc2ccccc2s1 (centres unmarked)	-6.85
CC1=C(C(=O)Nc2cccc(F)c2)C(c2cccc(C(F)(F)F)c2)NC(S)=N1 (centres unmarked)	1.54
COc1ccc(CC(=O)N2CCC3(CC2)N=C(c2ccc(Cl)cc2)C(=O)N3)cc1	10.7
CCOC(=O)C1=C(CC)OC(N)=C(C#N)C1c1ccc(Cl)cc1Cl (centres unmarked)	1.48
Cc1cccc(C(=O)NC(C)c2ccc3c(c2)OCO3)c1 (centres unmarked)	-1.04
CCC(=O)c1ccc(OCC(O)Cn2nnc3ccccc32)cc1 (centres unmarked)	3.66
C/C=C/Cn1c(NCc2ccccc2)nc2c1c(=O)[nH]c(=O)n2C	4.31
Cc1cccc(-n2c(CNC(=O)c3cccs3)nnc2SCC(=O)Nc2nccs2)c1	1.91
O/N=C1\CCCc2c1[nH]c1ccc(OCc3ccccc3)cc21	-7.88
CCCc1nc(O)cc2cc(OC)c(OC)cc12	1.72
Oc1c(C2=NNC(c3ccc(Cl)cc3Cl)C2)ccc2ccccc12 (centres unmarked)	0.484
CCN(CC)CCNC(=O)Cn1ncc2c3ccccc3n(Cc3ccccc3)c2c1=O	-1.58
CC1(C)CC(=O)C(/C=N/c2ccc(Cl)cn2)=C(O)C1	-3.74
CC1(C)OC(C)(C)C2=C1C=Nc1ccccc1N2	-9.75
CN(Cc1ccccc1)c1ccc2nnc(-c3ccccc3)n2n1	-3.08
CCOC(=O)N1CCC(NC(=O)Cn2c3c(c(-c4ccccc4Cl)cc2=O)CCC3)CC1	-2.72
CCOc1ccc(-c2nnc(-c3ccco3)o2)cc1	1.84
CCOc1ccc(-c2csc(/C(C#N)=C/c3ccc(Br)o3)n2)cc1	5.77
Cc1ccc2c(c1)c1c(n2CC(O)Cn2nc(C)cc2C)CCCC1 (centres unmarked)	0.777
O=C(NN=C1CCCC1)C(=O)Nc1ccc(F)cc1	-4.41

Structure (SMILES)	% Inhibition @ 10 uM [%]
Cc1cccc(C(=O)Nc2ccc(F)cc2F)c1	2.13
COc1ccc(C)cc1NC(=O)CN(c1ccccc1Cl)S(C)(=O)=O	-3.92
CC(C)C[C@H](NC(=O)c1cc2cc(OCCN3CCOCC3)ccc2o1)C(=O)NC1COCC1=O (some centres unmarked)	-8.26
CCOc1ccc2[nH]c(SCC(=O)Nc3ccccc3)nc2c1	-4.75
O=C(NCC(=O)N1CCCCCC1)c1cccs1	-1.34
CCOC(=O)c1cc(S(=O)(=O)NCc2ccc(C)cc2)cn1C	-1.06
Cn1c(CN2CCN(Cc3ccccc3)CC2)nc(=O)c2ccccc21	-6.52
OCCOCCN1CCN(CC(c2ccccc2)c2ccccc2)CC1	-4.75
O=[N+]([O-])c1ccc(CSc2ncnc3c2ncn3C2OC(CO)C(O)C2O)cc1 (centres unmarked)	1.64
COc1ccccc1NC(=O)C1=C(C)N=C2CCCC(O)=C2C1c1ccccc1Br (centres unmarked)	-0.99
Cc1cccc(Cc2c(C)nc(O)c(C#N)c2C)c1	-3.94
O=C(CN(c1ccccc1Cl)S(=O)(=O)c1ccccc1)NC1CCCCC1	-0.69
CCOc1cccc(NC(=O)C2CC(=O)N(c3ccccc3)C2)c1 (centres unmarked)	-2.83
Cc1nc2ccccc2c2c1C(=O)N(CCO)C2=O	2.64
Cc1nc2ccc(S(=O)(=O)NCC(=O)NC3CCCCCC3)cc2s1	0.747
O=C(O)c1ccc(CN2CCN(c3ccccn3)CC2)cc1	-4.61
O=C(CC12CC3CC(CC(C3)C1)C2)Nc1cccnc1Cl	-0.171
Cc1cccc2c(CCN)c[nH]c12	-3.58
CCOc1ccc(CCNC(=O)c2nn(C)c3c2CSc2ccccc2-3)cc1OCC	3.3
COc1ccc(-c2cc(C(F)(F)F)nc(SCC(=O)Nc3cccnc3Cl)n2)cc1	2.46
O=C(CCNc1ccc2ccccc2c1)c1cccc([N+](=O)[O-])c1	-3.52
N#CC1=C(N)Nc2c(oc(CO)cc2=O)C1c1conc1-c1ccc(F)cc1 (centres unmarked)	-1.68
Clc1ccc2nc(NC3CCCCCCC3)c3nncn3c2c1	0.942
